In US20250163119A1, “COMPOUNDS FOR THE TREATMENT OF DIABETES OR OBESITY” (Eli Lilly and Company, priority 2023, published 2025):
Values joined by “and” are separate entries in the source; they are usually repeats but may differ in a detail not shown here. Equal values may be shown once. At least one structure is not confirmed: it was looked up by name or label, or the drawing left a doubt. Some compounds share one wording; it may come from a single statement. *1 amine or outer side, *2 acyl side, *3 side chain or, on linkers, in order; H or OH if unused. Where a SMILES comes first, the peptide text is derived from it. Side-chain parts run from the residue outwards. [ ]: non-standard residue; d: D form. The star is where a group is joined. C20 diacid = O=C(O)CCCCCCCCCCCCCCCCCCC(=O)*; γGlu = O=C(O)[C@H](CCC(=O)[*:2])N[*:1]; NMeI = CC[C@H](C)[C@H](NC)C(=O)O; αMeL = CC(C)C[C@](C)(N)C(=O)O; AEEA = NCCOCCOCC(=O)O; Aib = CC(C)(N)C(=O)O

Assays:
[1] = In vivo Diet Induced Obesity (DIO) model, chronic dose administration; design: species or system C57BL6 mice; conditions: DIO mice; for Fat mass change / lean mass change / body weight change / fasting blood glucose (% reduction from vehicle): 30 nmol/kg s.c. on days 1, 4, 7, 10, 13, mean; for Fat mass change / lean mass change: EchoMRI day 1 vs day 14; for body weight change: day 1 to day 14; for fasting blood glucose (% reduction from vehicle): day 15, vs vehicle in same study; for efficacy versus SEQ ID NO:54 for body weight change and fat mass change: single dose level of 30 nmol/kg
Description: The DIO model represents a pre-diabetic state that is obese. These animals, although not diabetic, display insulin resistance, dyslipidemia, and hepatic steatosis, all characteristics of metabolic syndrome, after being placed on a high fat (60% Kcal from fat) diet for 12 weeks (Surwit R S et al., Diet-induced type II diabetes in C57BL/6J mice. Diabetes 37(9): 1163-7 (1988)). Assessment of body weight change from start of study, fat mass change from start of study, lean mass change from start of study, and fasting glucose or glucose change from vehicle in same study substantially as set forth below. In the case of SEQ ID NO:55 combined with SEQ ID NO:25, tibialis anterior muscle weight at the end of the study is also reported as a measure of effect on muscle weight.
Male C57BL6 mice 22-24 weeks old (on high fat diet since 6 weeks of age, Jackson Laboratories 3800050; Bar Harbor, ME) are housed 1 per cage and maintained on D12492 chow (60% lard high fat diet: Research diets New Brunswick NJ) for 2 weeks in the vivarium and on a normal light cycle prior to experiment start. Animals were randomized by body weight to treatment groups using block randomization. On day 1 of experiment animals and food were weighed and recorded. Animals were separated in to two equal groups and started on separate days (data combined) to simplify the logistics of the study. Animals are given a single subcutaneous injection (s.c.) of the indicated treatment in 40 mM Tris HCl pH8.0+50 mM D-mannitol+0.02% polysorbate 80 on days 1(start), 4, 7, 10, and 13 of experiment at a volume of 10 ml/kg. Vehicle control animals were injected with a similar volume of this solution. The solutions were kept in sterile capped vials stored at 4° C. for the duration of the study. Each treatment arm has an n of 5-6 mice per group.
From study day 1 to study day 14 the animals were weighed daily prior to dose administration. […] The animals were placed in a weigh pan and the balance is allowed to stabilize. The weight was recorded.
On Study Day 14, the animals were fasted overnight (approximately 16-18 hours) by placing them in a clean cage with a clean wire rack without food but allowed access to water, and on day 15 animals were subjected to fasting blood glucose measurement as follows; the tail of the animal was resected and a blood samples was collected and blood glucose was measured using an Accu-Chek Aviva glucose meter (Roche; Indianapolis, IN). Statistical significance ([…] vs. 0 dose; one way ANOVA Dunnett's post hoc) was calculated using GraphPad Prism software (La Jolla, Ca).
On study day 1 and study day 14 body composition was analyzed using Quantitative Nuclear Magnetic Resonance EchoMRI analyzer (EMR-166-s, EchoMRI; Houston Tx). After calibrating the analyzer with a known amount of canola oil, the animals were placed in the analyzer which measures fat and non-fat (lean) mass in grams. Change in mass is calculated by subtraction of […].
On study day 15, following tail bleed for blood glucose, animals were sacrificed by C02 asphyxiation and the right tibialis anterior muscle was dissected. Muscles were trimmed of fascia and tendons and weighted. Weight was recorded and, in the case of relative weight, Tibialis anterior weight in milligrams was divided by body weight in grams.
The data are represented as the arithmetic mean plus or minus the standard error of the mean (SEM). Tables 6-9 show ED 50s for the listed parameters as appropriate. ED 50 was calculated using the log(agonist) vs. response—Find ECanything function in GraphPad Prism software (La Jolla, Ca) with F=50 and the top fixed to vehicle mean.

[2] = Association state determination by Sedimentation Velocity Analytical UltraCentrifugation (SV-AUC); format: physicochemical; conditions: 10 mg/mL; 1x PBS, pH 7.2; 20° C.
Method: SV-AUC was performed at 20° C. using a Beckman Optima with AN 60 Ti rotor and final rotor speed of 60,000 rpm. Peptides were dialyzed into 5 mM phosphate pH 7 or 1× phosphate buffered saline (PBS) pH 7.2. Samples were adjusted to the desired concentration (0.1 mg/mL, 1 mg/mL, or 10 mg/mL) using relevant buffer as needed. Both samples and buffer were passed through […] PVDF centrifugal filter units. The filtered samples were loaded into the sample sectors of the cells; filtered buffer alone was loaded in the reference sector of the cells. A Wavelength Scan was performed as the first step to choose a suitable lambda […] value for the given compound with 1-1.2 OD at the concentration(s) tested; this value was generally between 225 nm and 254 nm and used for Method Scan in the next step. In the Method Scan, both absorbance and interference detection modules were used. Temperature equilibration was set as first stage with 0 rpm rotor speed for 3 hours. Sedimentation velocity was set as second stage with rotor speed at 60,000 rpm. 300 scans with frequency of 60 seconds or 500 scan counts with frequency of 120 seconds were performed at the designated wavelength. Data were analyzed with SEDFIT software wherein a continuous c(s) distribution model was applied; the setting of relevant parameters is shown in Table 4 and Table 5; sedimentation coefficient (s) values were reported in Svedherg units (S).
The experiment to characterize a compound comprising SEQ ID NO:54 was performed at 300 scan counts with frequency of 60 seconds; for all other tested polypeptides, the experiments were performed at 500 scan counts with frequency of 120 seconds.

Molecule | Fat mass change [1] [g] | lean mass change [1] [g] | body weight change [1] [g] | fasting blood glucose (% reduction from vehicle) [1] [%] | efficacy versus SEQ ID NO:54 for body weight change and fat mass change [1] | Sedimentation Coefficient [2]
CC[C@H](C)[C@H](NC(C)=O)C(=O)N[C@H](C(=O)N[C@H](C(=O)N[C@@H](CO)C(=O)N[C@@](C)(CC(C)C)C(=O)N[C@@H](CC(=O)O)C(=O)N[C@@H](C(=O)N1CCC[C@H]1C(=O)N[C@H](C(=O)NC(C)(C)C(=O)N[C@@](C)(CC(C)C)C(=O)N[C@@H](CC(C)C)C(=O)N[C@@H](CCC(N)=O)C(=O)N[C@H](C(=O)N[C@@H](CCCCN)C(=O)N[C@@H](CC(C)C)C(=O)N[C@@H](CCC(=O)O)C(=O)N[C@@H](CCC(N)=O)C(=O)N[C@@H](CCC(=O)O)C(=O)N[C@@H](CCCNC(=N)N)C(=O)N[C@@H](C)C(=O)N[C@@H](CCC(=O)O)C(=O)N[C@@H](CCCCN)C(=O)N[C@@H](C)C(=O)N[C@@H](CCCNC(=N)N)C(=O)N[C@@H](CCC(N)=O)C(=O)N[C@@H](CCC(N)=O)C(=O)N[C@@H](C)C(=O)N[C@@H](CCCCNC(=O)COCCOCCNC(=O)COCCOCCNC(=O)CC[C@H](NC(=O)CCCCCCCCCCCCCCCCCCC(=O)O)C(=O)O)C(=O)N[C@@H](CCC(=O)O)C(=O)N[C@@H](CC(N)=O)C(=O)N[C@H](C(=O)N[C@@H](CCC(=O)O)C(=O)N[C@H](C(=O)N[C@@H](CC(C)C)C(=O)N[C@@H](C)C(=O)N[C@@H](CCC(N)=O)C(=O)N[C@H](C(N)=O)C(C)C)[C@@H](C)CC)[C@@H](C)O)[C@@H](C)CC)[C@@H](C)CC)C(C)C)[C@@H](C)O)C(C)C [SEQ ID NO: 42, Ac-IVTS αMeL D (D-Val) PI Aib αMeL LQIKLEQERAEKARQQAK((2-[2-(2-Amino-ethoxy)-ethoxy]-acetyl)2-γE-CO-(CH2)18-CO2H)ENTEILAQV-NH2] (Ac-IVTS[αMeL]D[dV]PI[Aib][αMeL]LQIKLEQERAEKARQQAK([AEEA-AEEA-γGlu-C20 diacid])ENTEILAQV-NH2) | -5.33 | 0.48 | -4.88 | 29.41 | superiority in efficacy over previous polypeptide SEQ ID NO:54 | –
CC[C@H](C)[C@H](NC)C(=O)N[C@H](C(=O)N[C@H](C(=O)N[C@@H](CO)C(=O)N[C@@H](CC(C)C)C(=O)N[C@@H](CC(=O)O)C(=O)N[C@H](C(=O)N1CCC[C@H]1C(=O)N[C@H](C(=O)NCC(=O)N[C@@](C)(CC(C)C)C(=O)N[C@@H](CC(C)C)C(=O)N[C@@H](CCC(N)=O)C(=O)N[C@@H](CCCCN)C(=O)N[C@@H](CC(C)C)C(=O)N[C@H](C(=O)N[C@@H](CCC(=O)O)C(=O)N[C@@H](CCC(N)=O)C(=O)N[C@@H](CCC(=O)O)C(=O)N[C@@H](CCCCN)C(=O)N[C@@H](CCC(N)=O)C(=O)N[C@@H](CCC(=O)O)C(=O)N[C@@H](CCCCN)C(=O)N[C@@H](CCC(=O)O)C(=O)N[C@@H](CCCCN)C(=O)N[C@@H](CCC(N)=O)C(=O)N[C@@H](CCC(N)=O)C(=O)N[C@@H](C)C(=O)N[C@@H](CCCCNC(=O)COCCOCCNC(=O)COCCOCCNC(=O)CC[C@H](NC(=O)CCCCCCCCCCCCCCCCCCC(=O)O)C(=O)O)C(=O)N[C@@H](CCC(=O)O)C(=O)N[C@@H](CC(N)=O)C(=O)N[C@H](C(=O)N[C@@H](CCC(=O)O)C(=O)N[C@H](C(=O)N[C@@H](CC(C)C)C(=O)N[C@@H](C)C(=O)N[C@@H](CCC(N)=O)C(=O)N[C@H](C(N)=O)C(C)C)[C@@H](C)CC)[C@@H](C)O)[C@@H](C)CC)[C@@H](C)CC)C(C)C)[C@@H](C)O)C(C)C [SEQ ID NO: 49, (NMeI) VTSLDVPIG αMeL LQKLIEQEKQEKEKQQAK((2-[2-(2-Amino-ethoxy)-ethoxy]-acetyl)2-γE-CO-(CH2)18-CO2H)ENTEILAQV-NH2] (H-[NMeI]VTSLDVPIG[αMeL]LQKLIEQEKQEKEKQQAK([AEEA-AEEA-γGlu-C20 diacid])ENTEILAQV-NH2) | – | – | – | – | – | 0.9 S and 1.7 S
CC[C@H](C)[C@H](NC)C(=O)N[C@H](C(=O)N[C@H](C(=O)N[C@@H](CO)C(=O)N[C@@H](CC(C)C)C(=O)N[C@@H](CC(=O)O)C(=O)N[C@H](C(=O)N1CCC[C@H]1C(=O)N[C@H](C(=O)NCC(=O)N[C@@](C)(CC(C)C)C(=O)N[C@@H](CC(C)C)C(=O)N[C@@H](CCC(N)=O)C(=O)N[C@@H](CCCCN)C(=O)N[C@@H](CC(C)C)C(=O)N[C@@H](CC(C)C)C(=O)N[C@@H](CCC(=O)O)C(=O)N[C@@H](CCC(N)=O)C(=O)N[C@@H](CCC(=O)O)C(=O)N[C@@H](CCCNC(=N)N)C(=O)N[C@@H](C)C(=O)N[C@@H](CCC(=O)O)C(=O)N[C@@H](CCCCN)C(=O)N[C@@H](C)C(=O)N[C@@H](CCCNC(=N)N)C(=O)N[C@@H](CCC(N)=O)C(=O)N[C@@H](CCC(N)=O)C(=O)N[C@@H](C)C(=O)N[C@@H](CCCCNC(=O)COCCOCCNC(=O)COCCOCCNC(=O)CC[C@H](NC(=O)CCCCCCCCCCCCCCCCCCC(=O)O)C(=O)O)C(=O)N[C@@H](CCC(=O)O)C(=O)N[C@@H](C)C(=O)N[C@@H](C)C(=O)N[C@@H](CCC(=O)O)C(=O)N[C@H](C(=O)N[C@@H](CC(C)C)C(=O)N[C@@H](C)C(=O)N[C@@H](CCC(N)=O)C(=O)N[C@H](C(N)=O)C(C)C)[C@@H](C)CC)[C@@H](C)CC)C(C)C)[C@@H](C)O)C(C)C [SEQ ID NO: 50, (NMeI) VTSLDVPIG αMeL LQKLLEQERAEKARQQAK((2-[2-(2-Amino-ethoxy)-ethoxy]-acetyl)2-γE-CO-(CH2)18-CO2H)EAAEILAQV-NH2] (H-[NMeI]VTSLDVPIG[αMeL]LQKLLEQERAEKARQQAK([AEEA-AEEA-γGlu-C20 diacid])EAAEILAQV-NH2) | -7.18 | -0.02 | -7.20 | 40.16 | superiority in efficacy over previous polypeptide SEQ ID NO:54 | –
γGlu-GPSIVTS[αMeL]D[dV]PI[Aib][αMeL]LQIKLEQERAEKARQQAK([AEEA-AEEA-γGlu-C20 diacid])ENTEILAQV-NH2 [SEQ ID NO: 45, γE-GPSIVTS αMeL D (D-Val) PI Aib αMeL LQIKLEQERAEKARQQAK((2-[2-(2-Amino-ethoxy)-ethoxy]-acetyl)2-γE-CO-(CH2)18-CO2H)ENTEILAQV-NH2] | -5.40 | 0.56 | -4.93 | 40.88 | superiority in efficacy over previous polypeptide SEQ ID NO:54 | –
